Source: the supplement of paper PMC11348887
Counter-ions that a name gives are not always drawn. The list shows a part of the results. Cut-off read from the data, not from the text of the source: active = -2 or less and inactive = the rest. Most values come without repeats; read them as rough.

system: hPSC-derived cortical neurons (WA09); test: nuclei number (viability) z-score; higher = more surviving cells; conditions: 5 µM; treatment: days 7-14 after plating, readout day 21
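Note: nuclei counted from DAPI counterstain by automated high-content image analysis, four fields per well at ×20 in 384-well plates, with sequential b-score then z-score normalization.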

| SMILES | nuclei number (z-score) |
| --- | --- |
| CCN(CC)C(=O)N1CCN(C)CC1 [Diethylcarbamazine citrate] | inactive: -0.174 |
| O=C(c1ccccc1)c1ccc2nc(NC(=O)c3csc(C4CCN(c5ncnc6ccsc56)CC4)n3)[nH]c2c1 | inactive: -0.291 |
| CC(CN(C)C)CN1c2ccccc2CCc2ccccc21 (stereo not given) [Trimipramine Maleate] | inactive: -0.582 |
| Cn1c(N2CCCCS2(=O)=O)nc(C(=O)NCc2ccc(F)cc2)c(O)c1=O | inactive: 0.862 |
| OC(CCN1CCCC1)(c1ccccc1)C1CCCCC1 (stereo not given) [Procyclidine HCl] | inactive: 0.722 |
| C[N+](C)(C)C[C@H](O)CC(=O)[O-] [L-carnitine] | inactive: 1.87 |
| C[N+](C)(C)CC(O)CC(=O)[O-] (racemic) [DL-Carnitine HCl] | active: -2.34 |
| CC(=O)NC(CC(C)C)C(=O)O (stereo not given) [Acetylleucine] | inactive: 0.181 |
| CCS(=O)(=O)N1CCN(c2ccc(Nc3ncc(C(N)=O)c(NC4CC4)n3)cc2)CC1 | inactive: 1.34 |
| C=C1CC[C@H](O)C/C1=C/C=C1\CCC[C@]2(C)[C@@H]([C@H](C)/C=C/[C@H](C)C(C)C)CC[C@@H]12 [Vitamin D2] | inactive: 0.238 |
| Nc1nc(N)c2nc(-c3ccccc3)c(N)nc2n1 [Triamterene] | inactive: 0.182 |
| Cc1ccc(C(=O)N(CCCN)[C@@H](c2oc3cc(Cl)ccc3c(=O)c2Cc2ccccc2)C(C)C)cc1 | active: -8.19 |
| C=CC[N+]1([C@H]2C[C@H]3[C@@H]4CC[C@H]5C[C@H](O)[C@@H](N6CCOCC6)C[C@]5(C)[C@H]4CC[C@]3(C)[C@H]2OC(C)=O)CCCC1 [Rocuronium Bromide] | inactive: 0.786 |
| Cc1ccc(C(=O)Cn2c3c(sc2=N)CCCC3)cc1 [Pifithrin-_ (PFT_)] | inactive: 0.521 |
| CC(C)(C)NC(=O)[C@H]1CC[C@H]2[C@@H]3CC[C@H]4NC(=O)C=C[C@]4(C)[C@H]3CC[C@]12C [Finasteride] | inactive: 1 |
| COc1ccc(CCC(=O)c2c(O)cc(O[C@@H]3O[C@H](CO)[C@@H](O)[C@H](O)[C@H]3O[C@@H]3O[C@@H](C)[C@H](O)[C@@H](O)[C@H]3O)cc2O)cc1O [Neohesperidin Dihydrochalcone (Nhdc)] | inactive: 3.11 |
| CC(C)(C)CC(C)(C)c1ccc(OCCOCC[N+](C)(C)Cc2ccccc2)cc1 [Benzethonium Chloride] | active: -4.54 |
| O=[N+]([O-])c1cn2c(n1)OC[C@@H](OCc1ccc(OC(F)(F)F)cc1)C2 | inactive: 0.444 |
| Cn1nnc2c(C(N)=O)ncn2c1=O [Temozolomide] | inactive: 0.0117 |
| COc1ccc(CCC(=O)Nc2nc3ccc(Cl)cc3s2)cc1OC | inactive: 0.0976 |
| C=C1C(=O)O[C@H]2[C@H]1CC/C(C)=C/CC[C@@]1(C)O[C@@H]21 [(-)-Parthenolide] | inactive: -0.55 |
| CCCCOc1ccc(C(=O)CCN2CCCCC2)cc1 [Dyclonine HCl] | inactive: 0.52 |

| SMILES | nuclei number (z-score) |
| --- | --- |
| CC(=O)OCC(=O)[C@@]1(O)CC[C@H]2[C@@H]3CCC4=CC(=O)C=C[C@]4(C)[C@H]3[C@@H](O)C[C@@]21C [Prednisolone Acetate] | inactive: 0.559 |
| COc1ccc(CNc2nc(N3CCC[C@H]3CO)ncc2C(=O)NCc2ncccn2)cc1Cl [Avanafil] | inactive: -0.764 |
| COC(=O)N[C@H](C(=O)N1CC2(CC2)C[C@H]1c1nc(-c2ccc3c(c2)C(F)(F)c2cc(-c4ccc5[nH]c([C@@H]6[C@H]7CC[C@H](C7)N6C(=O)[C@@H](NC(=O)OC)C(C)C)nc5c4)ccc2-3)c[nH]1)C(C)C [Ledipasvir (GS5885)] | inactive: 0.944 |
| CN1CCN(C(=O)c2cc3cc(Cl)ccc3[nH]2)CC1 | inactive: -0.225 |
| OC[C@@H](O)CN1CCN(c2ccccc2)CC1 [Levodropropizine] | inactive: 0.17 |
| N#CC1(c2ccc(NC(=O)c3cccnc3NCc3ccncc3)cc2)CCCC1 [Apatinib] | inactive: -0.209 |
| CC(ONC(=O)c1cc(C(F)(F)F)cc(C(F)(F)F)c1)C(=O)Nc1ccc(Cl)cc1 (stereo not given) | inactive: -0.128 |
| CC[C@H](c1ccc(O)cc1)[C@@H](CC)c1ccc(O)cc1 [Hexestrol] | inactive: 1.91 |
| Cc1c(Nc2ncccc2C(=O)O)cccc1C(F)(F)F [Flunixin Meglumin] | inactive: -0.858 |
| NCCc1ccc(O)c(O)c1 [Dopamine HCl] | inactive: -0.334 |
| Cn1cnc2c(F)c(Nc3ccc(Br)cc3Cl)c(C(=O)NOCCO)cc21 [Selumetinib (AZD6244)] | inactive: 0.217 |
| Nc1nc(N)c2nc(-c3cccc(O)c3)c(-c3cccc(O)c3)nc2n1 | inactive: 0.155 |
| C[C@H](CS)C(=O)N1CCC[C@H]1C(=O)O [Captopril] | inactive: -0.14 |
| CCOC(=O)c1c2c3c(cccc3[nH]c1=O)C(=O)c1ccccc1-2 | inactive: -1.46 |
| CN(Cc1cc(Br)cc(Br)c1N)C1CCCCC1 [Bromhexine HCl] | inactive: -0.595 |
| FC(F)(F)Oc1ccc2nc(-c3ccc(OCCOCCOc4ccc(-c5nc6ccc(OC(F)(F)F)cc6[nH]5)nc4)cn3)[nH]c2c1 | inactive: -1.65 |
| C=CCNC1=C2C[C@@H](C)C[C@H](OC)[C@H](O)[C@@H](C)/C=C(\C)[C@H](OC(N)=O)[C@@H](OC)/C=C\C=C(/C)C(=O)NC(=CC1=O)C2=O [17-AAG (Tanespimycin)] | inactive: 1.22 |
| CCC(C)C(NC(=O)C(C(C)CC)N(C)C(C)=O)C(=O)NC(C(=O)NC(CC(C)C)C(=O)C1(C)CO1)C(C)O (stereo not given) [Epoxomicin] | active: -7.37 |
| Cc1cccc(N(C)C(=S)Oc2ccc3ccccc3c2)c1 [Tolnaftate] | inactive: -1.16 |
| O=c1[nH]c(=O)n([C@H]2C[C@H](O)[C@@H](CO)O2)cc1I [Idoxuridine] | inactive: 0.394 |
| CN1CCN(c2ccc3nc(-c4c(N)c5c(F)cccc5[nH]c4=O)[nH]c3c2)CC1 [Dovitinib (TKI-258_ CHIR-258)] | inactive: -1.28 |
| CN1CCN(c2ccc3nc(-c4c(N)c5c(F)cccc5[nH]c4=O)[nH]c3c2)CC1 [Dovitinib (TKI258) Lactate] | active: -5.19 |

| SMILES | nuclei number (z-score) |
| --- | --- |
| CN1CCN(c2ccc3nc(-c4c(N)c5c(F)cccc5[nH]c4=O)[nH]c3c2)CC1 [Dovitinib (TKI-258) Dilactic Acid] | active: -7.78 |
| CCCCc1oc2ccccc2c1C(=O)c1cc(I)c(OCCN(CC)CC)c(I)c1 [Amiodarone HCl] | inactive: -0.941 |
| O=C(O)c1cccnc1 [Nicotinic Acid] | inactive: 0.843 |
| COc1cc2c(NC3CCN(CC4CCCCC4)CC3)nc(N3CCCN(C(C)C)CC3)nc2cc1OCCCN1CCCCC1 | active: -5.04 |
| COc1ccc(-c2ccc3cc(C(=O)O)ccc3c2)cc1C12CC3CC(CC(C3)C1)C2 [Adapalene] | inactive: 0.0314 |
| CCN1CCCC1CNC(=O)c1cc(S(N)(=O)=O)ccc1OC (stereo not given) [Sulpiride] | inactive: -0.225 |
| CC1(C)C=C(CN2C/C(=C\c3ccc(F)cc3)C(=O)/C(=C/c3ccc(F)cc3)C2)C(C)(C)N1O | inactive: -0.0464 |
| NNC(=O)c1ccncc1 [Isoniazid] | inactive: 2.53 |
| O=C(O)CCCN1CCC(O[C@@H](c2ccc(Cl)cc2)c2ccccn2)CC1 [Bepotastine Besilate] | inactive: -0.198 |
| O=C(Nc1ncc(SCCN2CCCC2)s1)[C@]1(c2ccc(S(=O)(=O)C3CC3)cc2)C[C@H]1C1CCCCC1 | active: -8.67 |
| C[C@H]1C[C@H]2[C@@H]3CCC4=CC(=O)C=C[C@]4(C)[C@H]3C(=O)C[C@]2(C)[C@@]1(O)C(=O)CO [Meprednisone] | inactive: 0.716 |
| CCC(=O)OCC(=O)[C@@]1(OC(=O)CC)[C@@H](C)C[C@H]2[C@@H]3CCC4=CC(=O)C=C[C@]4(C)[C@@]3(F)[C@@H](O)C[C@@]21C [Betamethasone Dipropionate] | inactive: 0.534 |
| Cc1ccc(S(=O)(=O)OCC(=O)Nc2ccc(C(=O)O)c(O)c2)cc1 | inactive: 0.733 |
| COc1ccc(-c2cc(=O)c3c(OC)c(OC)c(OC)c(OC)c3o2)cc1OC [Nobiletin] | inactive: -1 |
| Cc1ccc(C(=O)Nc2cccc(C(F)(F)F)c2)cc1Nc1nc(-c2cccnc2)nc2c1cnn2C | inactive: 0.173 |
| CCOC(=O)N1c2ccc(C(F)(F)F)cc2[C@@H](N(Cc2cc(C(F)(F)F)cc(C(F)(F)F)c2)C(=O)OC)C[C@H]1CC [Torcetrapib] | inactive: -0.822 |
| O=c1cc[nH]c(=O)[nH]1 [Uracil] | inactive: -0.0218 |
| CO[C@H]1C[C@@H]2CC[C@@H](C)[C@@](O)(O2)C(=O)C(=O)N2CCCC[C@H]2C(=O)O[C@H]([C@H](C)C[C@@H]2CC[C@@H](OC(=O)C(C)(CO)CO)[C@H](OC)C2)CC(=O)[C@H](C)/C=C(\C)[C@@H](O)[C@@H](OC)C(=O)[C@H](C)C[C@H](C)/C=C/C=C/C=C/1C | inactive: 0.0362 |
| CCC[C@@H]1C[C@@H](C(=O)N[C@@H]([C@H]2O[C@H](SC)[C@H](O)[C@@H](O)[C@H]2O)[C@@H](C)O)N(C)C1 [Lincomycin HCl] | inactive: -0.176 |
| N#Cc1c(Oc2ccc(F)c(NC(=O)Cc3cccc(C(F)(F)F)c3)c2)ccc2nc(NC(=O)C3CC3)sc12 | inactive: 0.625 |
| O=C(O)c1ccc(C=C2SC(=S)N(c3cccc(C(F)(F)F)c3)C2=O)cc1 | inactive: 1.06 |
